Experimental data published in the supplement of paper PMC9446081.
Screen size: about 39,000 compounds; about 220 (0.56%) showed activity. The list shows a part of the results.

tested on: Escherichia coli K-12 BW25113; experiment: relative growth (OD600 normalised to plate interquartile mean) (fraction); higher = less growth inhibition, active = 0.2 or less; conditions: 50 µM; LB; incubation time: overnight (16-24 h)
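Also: static incubation at 37 °C against the wild-type strain, values averaged over two biological replicates.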

| SMILES | relative growth |
| --- | --- |
| O=C(NO)c1ccc(C(=O)N/N=C/[C@H](O)[C@H](O)[C@@H](O)[C@@H](O)CO)cc1 | inactive: 0.999 |
| C[C@H](CO)N1C[C@H](C)[C@@H](CN(C)Cc2ccc(Cl)c(Cl)c2)Oc2c(NC(=O)Nc3ccc4c(c3)OCO4)cccc2C1=O | inactive: 1.02 |
| CC1CC(OC(=O)c2ccccc2O)CC(C)(C)C1 (configuration not stated) | inactive: 1 |
| CO/N=[N+](\[O-])N(C)C[C@@H](C)O | inactive: 1.02 |
| C[C@H]1CN([C@@H](C)CO)C(=O)Cc2cc(NC(=O)c3ccncc3)ccc2O[C@@H]1CN(C)Cc1ccc2c(c1)OCO2 | inactive: 0.998 |
| C[C@H](CO)N1C[C@H](C)[C@@H](CN(C)C(=O)Nc2ccc(F)cc2)Oc2ccc(NC(=O)CCN3CCOCC3)cc2C1=O | inactive: 0.993 |
| Cc1ccc(S(=O)(=O)N(C)C[C@H]2OCCCC[C@@H](C)Oc3ccc(NC(=O)C4CCCCC4)cc3C(=O)N([C@@H](C)CO)C[C@H]2C)cc1 | inactive: 1.02 |
| O=C(C[C@H]1CC[C@@H](NC(=O)c2cccnc2)[C@H](CO)O1)NCCN1CCCCC1 | inactive: 1 |
| C[C@@H]1CN([C@@H](C)CO)C(=O)CCCn2nncc2CO[C@@H]1CN(C)Cc1ccc2c(c1)OCCN2C | inactive: 1.01 |
| COc1ccc(CN(C)C[C@H]2Oc3c(NC(=O)Nc4ccc(C(F)(F)F)cc4)cccc3C(=O)N([C@@H](C)CO)C[C@H]2C)cc1 | inactive: 0.892 |
| C[C@H](CO)N1C[C@H](C)[C@@H](CN(C)C(=O)Nc2ccc(C(F)(F)F)cc2)OCCCC[C@H](C)Oc2ccc(NS(=O)(=O)c3ccc(F)cc3)cc2C1=O | inactive: 1.01 |
| COc1ccc(S(=O)(=O)N(C)C[C@H]2Oc3ccc(NC(=O)Cn4cnnn4)cc3C(=O)N([C@H](C)CO)C[C@H]2C)cc1 | inactive: 0.999 |
| O=C(C[C@H]1CC[C@H](NC(=O)Cc2ccccn2)[C@H](CO)O1)NCCCN1CCOCC1 | inactive: 1.01 |
| CCS(=O)(=O)N1C[C@]2(C1)CN([C@H](CO)c1[nH]c3cc(ccc3c12)OC)S(=O)(=O)c1cccc(c1)OC | inactive: 0.989 |
| COC(=O)C1=C(C#N)NC(C)=C(C(=O)OC(C)C)C1c1cccc([N+](=O)[O-])c1 (configuration not stated) | inactive: 1.04 |
| O=C(C[C@@H]1CC[C@H]2[C@@H](COC[C@H](O)CN2S(=O)(=O)c2ccc(F)cc2)O1)NCCN1CCCCC1 | inactive: 0.979 |
| C[C@@H]1CCCCO[C@@H](CN(C)S(=O)(=O)c2ccc(Cl)cc2)[C@@H](C)CN([C@@H](C)CO)C(=O)c2cc(NC(=O)Nc3cccc4ccccc34)ccc2O1 | inactive: 1.01 |
